From PubChem BioAssay AID1345082 (National Center for Advancing Translational Sciences (NCATS), 2018)
Hit rate of the full screen: of about 94,000 compounds, about 4,000 (4.3%) were called active. Inconclusive means that the source gave no clear call. Such entries were picked first, then a sample of the others. Calls follow the shape of the dose curve; as a rule, active = well fitted inhibition curve with a large enough effect; inconclusive = small, poorly fitted or top-dose-only effect; inactive = no such curve, though single readings can be large or run the other way. Potencies of inconclusive entries are doubtful fits and often do not repeat.

assay: Cytotoxic Profiling in NIH 3T3 Cell Line of Diverse Libraries Using Quantitative High-Throughput Screening; conditions: NIH 3T3 viability, CellTiter-Glo ATP luminescence, 48-72 h; activity change, negative = cytotoxicity: at 96.7 µM (top of the series); series mostly up to 96.7 µM; also: nearly all actives have a fitted effect of over 55% in size
Procedure, shortened: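 Cytotoxicity is measured as loss of cellular ATP: NIH 3T3 cells (400/well) are exposed to compound for 48 or 72 hr at 37 °C, then CellTiter-Glo luminescence is imaged after 10 min at room temperature.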
% is scaled to controls: 0 for no effect and ±100 for the full control effect; potency is read from the fitted curve at half-maximal effect; tags tell the direction and shape of the fitted curve.

Row | Compound | Potency | activity change, negative = cytotoxicity | outcome
1 | O=C(NC[C@H]1COCc2nc3cc(F)ccc3n21)c1ccc(Cl)cc1 | inconclusive: 89.1 µM [inhibitor, partial curve, poor fit] |  | 
2 | O=C(c1n[nH]c2c1CCCC2)N1CCC2(CC1)NC(=O)N(c1ccc(F)cc1)N2 | inconclusive: 35.5 µM [inhibitor, partial curve] |  | 
3 | COc1cccc(Cn2c(=O)c3ccnn3c3ccc(C(=O)O)cc32)c1 | inconclusive: 44.7 µM [inhibitor, partial curve, poor fit] |  | 
4 | COc1ccc(Nc2ccnc(N3CCN(C(=O)c4ccc(C(F)(F)F)cc4)CC3)n2)cc1 | inconclusive: 44.7 µM [inhibitor, partial curve, poor fit] |  | 
5 | COc1cccc([S+](=O)([O-])N2CC(N(C)c3ccccc3C)C2)c1 | inconclusive: 50.1 µM [inhibitor, partial curve, poor fit] |  | 
6 | CN(C)C(=O)N1CCn2nc(CNC(=O)c3cccc(-n4cnnc4)c3)cc2C1 |  | inactive: -1.12% | 
7 | CC(C)CCNC(=O)c1cnc2n1CCN(Cc1cccc(OC(F)(F)F)c1)CC2 | inconclusive: 44.7 µM [inhibitor, full curve] |  | 
8 | COCCCNC(=O)c1ccc2nnc(-c3cccc(C(F)(F)F)c3)n2c1 |  | inactive: -23% | 
9 | O=C1CCN(S(=O)(=O)c2ccccc2)CCCN(C(=O)C2COc3ccccc3O2)CCN1 (stereo not given) |  | inactive: -3.55% | 
10 | COc1cccc(NC(=O)Cn2c(N3CCN(c4ccccc4)CC3)nc(C)cc2=O)c1 | inconclusive: 50.1 µM [inhibitor, partial curve, poor fit] |  | 
11 | O=C1N(Cc2ccc(F)cc2)CCCC12CCN(c1nc3ccccc3o1)C2 (stereo not given) | inconclusive: 39.8 µM [inhibitor, full curve, poor fit] |  | 
12 | COc1ccc(-c2nnc(C[C@@H]3C[C@@H](C(C)C)[C@H](CN4CCN(C)CC4)C=C3C)o2)cc1 | active: 39.8 µM |  | 
13 | COc1ccc(-c2cc(C[C@@H]3CC[C@H](O)[C@@H](CNC(=O)NCc4ccccc4)O3)no2)cc1 | inconclusive: 39.8 µM [inhibitor, full curve, poor fit] |  | 
14 | CCOc1cc(C(=O)NC2CCN(c3cc(-c4ccc(F)cc4)[nH]n3)CC2)cc(OCC)c1OCC | inconclusive: 44.7 µM [inhibitor, partial curve] |  | 
15 | CN1CCCN(C(=O)Cc2cccs2)c2ccccc21 | inconclusive: 44.7 µM [inhibitor, partial curve, poor fit] |  | 
16 | Cc1cccc(CN2CCCC3(CCN(c4cc(C)c5ccccc5n4)C3)C2=O)c1 (stereo not given) | inconclusive: 35.5 µM [inhibitor, partial curve, poor fit] |  | 
17 | Cc1ccc(C(=O)NCCc2ncc(C)n2C2CCCC2)cn1 |  | inactive: -0.355% | 
18 | Cc1cnc(C(=O)NC2C[C@H]3CC[C@@H](C2)N3C(=O)Nc2cccc(C(F)(F)F)c2)cn1 (stereo not given in full) | inconclusive: 44.7 µM [inhibitor, partial curve, poor fit] |  | 
19 | COc1ccccc1C(=O)N1CC[C@@H]2CN(S(C)(=O)=O)[C@@H]2C1 | inconclusive: 79.4 µM [inhibitor, partial curve, poor fit] |  | 
20 | COc1ccc(-c2ccc(C(=O)NCc3ccc(F)cc3)c(Cl)c2)nn1 | inconclusive: 56.2 µM [inhibitor, partial curve, poor fit] |  | 

Row | Compound | Potency | activity change, negative = cytotoxicity | outcome
21 | CCOC(=O)[C@@H]1CN(C(=O)c2cc(C)oc2C)[C@H]2c3ccc(OC)cc3O[C@@H]12 | inconclusive: 50.1 µM [inhibitor, partial curve, poor fit] |  | 
22 | O=C1NC2(CN(Cc3cccc4ccccc34)C2)Oc2ccccc21 | inconclusive: 89.1 µM [inhibitor, partial curve, poor fit] |  | 
23 | Cc1ccccc1S(=O)(=O)N1CCn2c(n[nH]c2=O)C1 |  | inactive: 2.91% | 
24 | COc1cccc(Nc2ncc3c(n2)C(C)(C(=O)NC2CCOCC2)CC3)c1 (stereo not given) | active: 39.8 µM |  | 
25 | COc1ccc(C)cc1NC(=O)Cn1c(C)cc2nc3n(c(=O)c21)CCCCC3 |  | inactive: -5.72% | 
26 | COc1ccc(C(=O)N2CCn3c(nn(-c4ccc(C)cc4)c3=O)C2)cc1 | inconclusive: 50.1 µM [inhibitor, partial curve, poor fit] |  | 
27 | COc1ccccc1-n1c(=O)c(C(=O)N2CCN(C(=O)c3ccccc3F)CC2)nc2cccnc21 |  |  | inactive
28 | COCc1ncc2c(n1)CCCN(CC(=O)Nc1ccccc1)C2=O |  | inactive: -1.57% | 
29 | O=C(Cc1ccccc1Cl)NC1CCN(c2cc(-c3cccs3)[nH]n2)C1 (stereo not given) | active: 20 µM |  | 
30 | COc1cccc(-c2ccc(C(=O)N3CCC(C(=O)NCc4cccs4)CC3)cc2)c1 | inconclusive: 44.7 µM [inhibitor, partial curve, poor fit] |  | 
31 | CCn1c2c(c(=O)n1Cc1ccccc1)CCN(Cc1nccs1)C2 | inconclusive: 112 µM [inhibitor, single point] |  | 
32 | Cc1ccc(C(=O)N2CCC3(CC2)NC(=O)N(Cc2ccc(F)cc2)C3=O)cc1 | inconclusive: 44.7 µM [inhibitor, partial curve, poor fit] |  | 
33 | O=C(NC1CCN(c2ccc3nnc(C4CC4)n3n2)C1)c1ccccc1Cl (stereo not given) | inconclusive: 79.4 µM [inhibitor, partial curve, poor fit] |  | 
34 | CCOCCOC1CCN(C(=O)c2ccccc2)CC1 |  |  | inactive
35 | COc1ccc(-c2noc([C@@H]3CCCN3C(=O)c3ccc(F)c(Cl)c3)n2)cc1 | inconclusive: 70.8 µM [inhibitor, single point] |  | 
36 | Fc1ccc(-c2cnc3n2C[C@H](CNCC2CCCCC2)OC3)cc1 | inconclusive: 89.1 µM [inhibitor, partial curve, poor fit] |  | 
37 | O=C(Nc1ccccc1Cl)C1CCCN1Cc1ccc(-c2cncnc2)cc1 (stereo not given) | inconclusive: 56.2 µM [inhibitor, partial curve, poor fit] |  | 
38 | COc1ccc(CN2CCOc3nc(-c4cc5ccccc5o4)ncc3C2=O)cc1 |  | inactive: -14.1% [at 138 µM] | 
39 | COc1cc(-c2ccnc(-c3nnc(C)n3Cc3ccccc3)c2)ccn1 | inconclusive: 79.4 µM [inhibitor, partial curve] |  | 
40 | O=[S+]([O-])(c1cccc(C(F)(F)F)c1)N1CCN(c2ccnc3ccnn23)CC1 | inconclusive: 50.1 µM [inhibitor, partial curve, poor fit] |  | 
